# The campaign covered roughly 310,000 compounds. About 14,000 (4.5%) showed an effect of 50% or more. Effects have a minus sign here. This is one part of the list.
# Biological target: human ether-à-go-go-related gene (hERG) potassium channel (human, UniProt Q12809)
# Assay: primary screen, population patch clamp on CHO cells stably expressing hERG
# 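Also: peak tail current of the secondary pulse compared with the same well before compound.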
# Chain of human ether-à-go-go-related gene (hERG) potassium channel (Q12809 whole entry, looked up): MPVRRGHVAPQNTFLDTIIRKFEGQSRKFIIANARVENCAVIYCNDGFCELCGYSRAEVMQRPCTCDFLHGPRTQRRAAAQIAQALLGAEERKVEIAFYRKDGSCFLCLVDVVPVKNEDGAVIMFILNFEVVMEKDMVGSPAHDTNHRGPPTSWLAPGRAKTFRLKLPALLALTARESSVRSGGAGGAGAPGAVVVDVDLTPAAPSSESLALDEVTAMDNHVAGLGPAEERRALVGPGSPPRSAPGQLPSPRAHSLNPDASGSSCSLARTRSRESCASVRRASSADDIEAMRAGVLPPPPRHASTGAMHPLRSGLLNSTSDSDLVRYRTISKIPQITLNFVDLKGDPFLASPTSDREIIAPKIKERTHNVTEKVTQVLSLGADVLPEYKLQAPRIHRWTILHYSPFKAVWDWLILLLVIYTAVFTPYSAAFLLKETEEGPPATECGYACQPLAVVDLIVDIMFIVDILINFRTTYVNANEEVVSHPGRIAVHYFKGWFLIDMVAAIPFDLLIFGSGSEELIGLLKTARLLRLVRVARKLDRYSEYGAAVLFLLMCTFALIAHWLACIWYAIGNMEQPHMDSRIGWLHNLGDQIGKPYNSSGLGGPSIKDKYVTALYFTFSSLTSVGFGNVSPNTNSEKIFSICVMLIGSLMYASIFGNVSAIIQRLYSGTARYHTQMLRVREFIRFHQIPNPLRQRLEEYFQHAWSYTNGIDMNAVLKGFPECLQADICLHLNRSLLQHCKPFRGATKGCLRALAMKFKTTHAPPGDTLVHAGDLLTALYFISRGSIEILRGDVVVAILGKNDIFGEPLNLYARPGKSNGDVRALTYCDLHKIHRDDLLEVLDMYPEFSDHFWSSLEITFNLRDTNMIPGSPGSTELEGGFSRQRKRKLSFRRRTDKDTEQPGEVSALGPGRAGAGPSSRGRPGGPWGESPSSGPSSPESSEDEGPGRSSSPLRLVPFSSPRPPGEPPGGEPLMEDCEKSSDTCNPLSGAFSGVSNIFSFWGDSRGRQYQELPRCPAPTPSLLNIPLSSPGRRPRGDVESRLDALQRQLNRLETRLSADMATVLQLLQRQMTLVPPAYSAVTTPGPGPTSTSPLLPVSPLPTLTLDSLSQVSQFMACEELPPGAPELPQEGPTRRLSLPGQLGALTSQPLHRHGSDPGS
row,SMILES,"hERG current change (%, negative = inhibition) at 10uM"
1,CCOC(=O)C(Cc1ccccc1)NC(=O)Cn1nnc(-c2ccc(SC)cc2)n1 (stereo not shown),-4.56%
2,COc1ccc(NC(=O)CCc2nnc3ccc(N4CCC5(CC4)OCCO5)nn23)cc1,-8.37%
3,COc1ccc(CCNC(=O)c2cc(C3CC3)nc3c2cnn3C(C)C)cc1OC,-17.1%
4,CCCCc1cc(=O)oc2cc(OC(C)C(=O)NCc3ccccn3)c(Cl)cc12 (stereo not shown),-13.6%
5,CC1CCN(CCCNC(=O)c2ccc(N3CCCC3=O)cc2)CC1,-32.2%
6,CCN(CC)S(=O)(=O)c1ccc(NS(=O)(=O)c2cccc(C)c2)cc1,-20.4%
7,CCCC[C@H]1C2=C3[C@@H](CC(C(=O)OC)=C[C@@H](C(=O)OC)[C@H]3C(C)(C)C2=O)n2c(=O)n(-c3ccccc3)c(=O)n21,-26.5%
8,O=C(Cc1ccccc1[N+](=O)[O-])OCC(=O)N1CCN(c2ccccc2)CC1,-6.16%
9,C=CCn1c(SCC(=O)Nc2sccc2C(N)=O)nc2ccccc2c1=O,19.2%
10,O=C(NCc1ccccn1)c1ccccc1OCc1ccc(F)cc1,-56.9%
11,Cc1ccccc1S(=O)(=O)Cc1ccc(C(=O)NCCN2CCN(Cc3ccccc3)CC2)o1,-61.9%
12,Cc1ccccc1-c1coc2cc(O)ccc2c1=O,-1.8%
13,COc1ccccc1CNC(=O)CCC(=O)N1C[C@H]2C[C@@H](C1)c1cccc(=O)n1C2,-5.65%
14,COC(=O)CSc1cc(C)nc(SC)n1,-4.47%
15,CC(C)(C)c1ccc(-c2nc(C=O)c3ccccn23)cc1,-23.7%
16,CCOc1ccc(NC(=O)c2ccc(NC(=O)C3CCCO3)cc2)cc1 (stereo not shown),8.54%
17,O=C(NCc1ccc(Cl)c(Cl)c1)c1ccco1,-14.5%
18,CCCc1nnc(NC(=O)CCC(=O)N2CCN(S(=O)(=O)c3ccc(C)cc3)CC2)s1,13.8%
19,COc1ccc(NC(=O)c2cn(-c3ccccc3)nc2SC)cc1,-8.55%
20,O=C1CNC(=S)N1CCCc1ccccc1,-2.23%
21,O=C(O)CCC(=O)Nc1ccccc1C(=O)N1CCN(c2ccc(Cl)cc2)CC1,11.7%
22,COC(=O)c1ccc(CS(=O)(=O)c2ccc(F)cc2)o1,18.5%

row,SMILES,"hERG current change (%, negative = inhibition) at 10uM"
1,CCN(CC)CCSc1nc(O)c(-c2ccccc2)c(=O)[nH]1.Cl,6.19%
2,Cc1ccc(NC(=O)N2C3CCCC2CC(NC(=O)C(C)(C)C)C3)cc1 (stereo not shown),10.1%
3,CCOc1ccc(C(=O)Nc2cccc3nsnc23)cc1[N+](=O)[O-],5.23%
4,COCCNCc1ccc(C(C)C)cc1.Cl,14%
5,Cc1cc(C(=O)NNC(=S)NCC(C)C)cs1,-9.13%
6,C[n+]1cccc(C2C(C#N)=C(N)Oc3c2ccc2ccccc32)c1.[I-] (stereo not shown),13.7%
7,O=C(Nc1cccc(Cl)c1)OCc1cn(-c2ccc(Cl)cc2)nn1,1.69%
8,N#CCSc1nc(-c2ccccc2)c2cc(Cl)ccc2n1,1.74%
9,CC(C)N(CCc1ccncc1)C(=S)Nc1ccc(F)c(Cl)c1,-71.7%
10,CC1(C)S[C@@H]2[C@H](NC(=O)C(NC(=O)N3CCNC3=O)c3ccccc3)C(=O)N2[C@H]1C(=O)O (stereo partly shown),14.2%
11,O=C(CN1C(=O)CCC1=O)Nc1cccc(NC(=O)CN2C(=O)CCC2=O)c1,20.2%
12,CCCC(C)C(=O)Nc1cc([N+](=O)[O-])ccc1F (stereo not shown),-0.69%
13,Cc1ccc(C(=O)C2CCNCC2)cc1.Cl,-1.73%
14,COCCn1c(SCC(=O)c2c(N)n(C3CC3)c(=O)[nH]c2=O)nnc1-c1cccc(C)c1,10.3%
15,Fc1cc(NC(=S)NCc2ccc(CNC(=S)Nc3ccc(Cl)c(F)c3)cc2)ccc1Cl,-2.24%
16,O=C(CNc1ccc(Cl)cc1)NNC(=S)NCc1ccccc1,14.2%
17,CC(C)CC(NC(=O)C1CCC(C)CC1)C(=O)NCc1ccco1 (stereo not shown),-24.6%
18,CC(NCC1COc2ccccc2O1)C(=O)NCc1ccccc1.O=C(O)C(=O)O (stereo not shown),-18.1%
19,CNn1cnc2ccsc2c1=O,16.8%
20,COCC(=O)N/N=C\c1cccc(OC)c1OC/C=C/c1ccccc1,-15.6%
21,COc1cc(OC)c(OC)cc1/C=C/C(=O)c1ccc(NS(=O)(=O)c2ccc(C)cc2)cc1,-0.00772%
22,CC(=O)OC(C)(C)/C=C/C(=O)C(C)(O)C1[C@H](O)C[C@@]2(C)C3CC=C4C(CC[C@@H](O)C4(C)C)[C@]3(CO)C(=O)C[C@]12C (stereo partly shown),25.8%

row,SMILES,"hERG current change (%, negative = inhibition) at 10uM"
1,COc1ccccc1Nc1c([N+](=O)[O-])cc(C)cc1[N+](=O)[O-],22.7%
2,CCCCCC(=O)Nc1ccc(N2CCOCC2)c(S(=O)(=O)Nc2ccc(OC)cc2)c1,-28.4%
3,COc1ccc(C(=O)NC2CC2)cc1OC1CCN(Cc2cc(C)c(C)cc2C)CC1,-83.1%
4,COc1ccc(NS(=O)(=O)c2cccc(C(=O)N/N=C/c3ccccn3)c2)cc1,7.1%
5,CC1C(=O)N2CCCc3cc(S(=O)(=O)N4CCCCC4)cc1c32 (stereo not shown),6.43%
6,Cc1ccc(/C=N/NC(=O)c2ccc(C(=O)N/N=C/c3ccc(C)s3)o2)s1,8.91%
7,COc1ccc(S(=O)(=O)N2CCOCC2)cc1NC(=O)CSc1nnc(N)s1,-17.2%
8,NS(=O)(=O)c1ccc(CNC(=O)Cc2ccc(S(=O)(=O)N3CCOCC3)s2)cc1,-1.38%
9,CC1CC(C)CN(S(=O)(=O)c2ccc(NC(=O)C3CC(=O)N(Cc4ccccc4)C3)cc2)C1 (stereo not shown),17.3%
10,O=C(NC(N1CCOCC1)C(Cl)(Cl)Cl)c1ccc(Br)cc1 (stereo not shown),-25.2%
11,CC(=O)N1CC(C)Oc2ccc(S(=O)(=O)Nc3ccc(Cl)cn3)cc21 (stereo not shown),3.04%
12,CCc1ccc(NC(=O)Nc2cnccn2)cc1,6.01%
13,COc1cc2[nH]c(=O)n(C3CCCCC3)c(=O)c2cc1OC,17.9%
14,CCOc1ccc(-c2cc(N3C(=O)Nc4ccccc4N3O)n[nH]2)cc1,20.1%
15,O=C(CNCCO)Nc1ccc(F)c(Cl)c1,11.1%
16,CCCCOc1ccc(N2C(N)=NC(N)=NC23CCCCC3)cc1.Cl,3.14%
17,CCOC(=O)c1nn(-c2ccc(Cl)cc2)c2nnc(Cc3ccc(C)cc3)c(=O)n12,-26.6%
18,CCc1nnc(NC(=O)CCC(=O)Nc2ccc(C)cc2)s1,-20.2%
19,CCN(CC)S(=O)(=O)c1csc(C(=O)NCc2ccccc2)c1,-5.34%
20,Cc1ccc(OCC(=O)Nc2ccc3c(c2)OCO3)cc1C,8.46%
21,CN(Cc1ccccc1)C(=O)COC(=O)C1=NNC(=O)CC1,-9.88%
22,CCn1c(SCC(=O)NCCOc2ccccc2)nc2ccccc2c1=O,-24.5%

row,SMILES,"hERG current change (%, negative = inhibition) at 10uM"
1,CC(=O)Oc1ccc(C(=O)Nc2cccc(NC(=O)c3ccco3)c2)cc1,13.5%
2,CC(C)(C)NC(=O)N1CCN(c2nc3ccc(Cl)cc3s2)CC1,-11.9%
3,CCN(CC)S(=O)(=O)c1ccc2c(c1)N(CC(=O)N1CCC(C(N)=O)CC1)C(=O)CO2,23.5%
4,N#CCCN(Cc1ccncc1)C(=S)NC1CC2C=CC1C2 (stereo not shown),2.76%
5,CC(=O)CSc1ccc(-c2nc3ccccc3[nH]2)cn1,-6.93%
6,CCCC(O)(CCC)C(=O)NN1CCCCC1,-1.58%
7,CCOC(=O)CNC(=O)CSc1ncnc2c1cnn2-c1ccc(OC)cc1,0.432%
8,CCCC[C@@H]1CN=C(N)N1CC(C)(C)C,13.4%
9,Nc1nnnn1/N=C/c1ccco1,-46.4%
10,CCS(=O)(=O)c1ccc2oc(Nc3cccc(OC)c3)nc2c1,9.78%
11,O=C(O)c1cn(-c2ccc(F)c(F)c2)c2c(F)c(F)c(F)c(F)c2c1=O,-0.977%
12,CC12CCC(C(=O)Nc3ccc(SC(F)F)cc3)(CC1=O)C2(C)C (stereo not shown),-46%
13,COc1cc(/C=C(/C(=O)c2cccs2)c2nc3ccccc3[nH]2)ccc1O,-22.2%
14,CCCCC(Sc1nc(C)c(Cc2ccccc2)c(=O)[nH]1)C(=O)O (stereo not shown),30%
15,[Cl-].c1ccc(Cc2cc[n+](Cc3ccccc3)cc2)cc1,4.13%
16,CCOc1ccccc1CN1CCC(N2CCC(C(=O)NC3CC3)CC2)CC1,1.53%
17,CN1C(=O)C(O)(CC(=O)c2ccc3c(c2)OCO3)c2ccccc21 (stereo not shown),-5.06%
18,O=C(CSc1nnnn1-c1ccccc1)NC(=O)Nc1ccc2c(c1)OCCO2,13.4%
19,COC(=O)c1c(O)ccc(Oc2ccccc2)c1C(=O)OC,8.07%
20,CCOCc1c(C(=O)Nc2cc(OCC)c(N3CCOCC3)cc2OCC)oc2ccccc12,6.09%
21,CCCCCSc1nc2c(cnn2-c2ccccc2)c(=O)[nH]1,1.61%
22,O=C(Cc1c[nH]c2ccccc12)Nc1nc2ccccc2[nH]1,-16.2%
